Assay results from PubChem BioAssay AID588795 (National Center for Advancing Translational Sciences (NCATS), 2011).
Several values for one entry are separate records, joined by “and”; a condition that tells them apart may be missing. Equal values may be shown once. Out of some 390,000 compounds screened, about 1,400 (0.36%) were called active. This list was built around the results that the source calls inconclusive (neither active nor inactive); the mix of calls is not that of the screen. The call rests on the fitted dose curve; in most records, active means well fitted inhibition curve with a large enough effect; inconclusive means small, poorly fitted or top-dose-only effect; inactive means no such curve, though single readings can be large or run the other way. Potencies beside an inconclusive call are fits to weak or partial responses and may not hold up.

What follows are molecules tested against Flap endonuclease 1 (Homo sapiens) (UniProt P39748) (assay: qHTS Assay for the Inhibitors of Human Flap endonuclease 1 (FEN1).). Details: Recombinant FEN1 flap cleavage, fluorescence, 15 min; series mostly up to 114 µM; activity change, negative = inhibition: at the top concentration.
How it was run: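 Reaction started by adding substrate (50 nM final) to 10 nM enzyme after 15 min room-temperature compound preincubation. Reads at 0 and 15 min, with data normalized and fitted to a four-parameter Hill equation.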
Further: nearly all actives have a fitted effect of over 65% in size.
On the % scale 0 is the no-effect control and ±100 the full control effect; potency means the concentration at half of the fitted maximal effect; tags describe the fitted curve by direction and shape.

Sequence of UniProt P39748 (P39748 whole entry, looked up): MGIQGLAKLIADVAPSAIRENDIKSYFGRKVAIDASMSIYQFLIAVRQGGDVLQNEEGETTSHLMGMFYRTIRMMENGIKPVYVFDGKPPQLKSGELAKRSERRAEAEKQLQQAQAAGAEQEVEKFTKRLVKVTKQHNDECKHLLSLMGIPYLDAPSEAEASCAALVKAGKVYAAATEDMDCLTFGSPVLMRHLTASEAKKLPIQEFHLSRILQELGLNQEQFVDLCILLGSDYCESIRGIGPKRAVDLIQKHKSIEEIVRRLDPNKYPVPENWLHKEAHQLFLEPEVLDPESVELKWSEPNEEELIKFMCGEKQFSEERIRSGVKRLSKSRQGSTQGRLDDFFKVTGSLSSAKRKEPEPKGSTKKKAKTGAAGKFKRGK

SMILES | Potency | activity change, negative = inhibition
Cc1cc(O)c(CN(C)C)c2c1C(=O)/C(=C/c1ccco1)O2 | inconclusive: 89.1 µM [inhibitor, single point] | –
CCCCC(=O)NC(c1ccc(Cl)cc1)c1ccc2cccnc2c1O (centres undefined) | inconclusive: 35.5 µM [inhibitor, partial curve, poor fit] | –
CC1CN(c2nc3c(c(=O)n(Cc4ccc(Cl)c(Cl)c4)c(=O)n3C)n2C)CC(C)O1 (centres undefined) | inconclusive: 89.1 µM [inhibitor, partial curve, poor fit] | –
CCCCN1CCCc2cc(CN(CCCN3CCOCC3)C(=O)Nc3ccc(OCC)cc3)ccc21 | inconclusive: 50.1 µM [inhibitor, partial curve, poor fit] | –
CSc1nsc(SCC(=O)Nc2ccc(NC(C)=O)cc2)n1 | – | inactive: 9%
COc1ccc(C(=O)N(c2ccc(OC)cc2)S(=O)(=O)c2cccs2)cc1 | inconclusive: 89.1 µM [inhibitor, partial curve, poor fit] | –
COc1ccc(-c2nc(SCC(=O)Nc3ccc4c(c3)OCO4)c(-c3ccc(OC)cc3)[nH]2)cc1 | inconclusive: 56.2 µM [inhibitor, partial curve, poor fit] | –
CCOC(=O)c1ccc(N2CSC3=C(C#N)C(c4cccs4)CC(=O)N3C2)cc1 (centres undefined) | inconclusive: 56.2 µM [inhibitor, partial curve, poor fit] | –
COc1ccccc1NC(=O)CSc1oc(-c2cccs2)nc1S(=O)(=O)c1ccc(Br)cc1 | – | inactive: 0.498%
O=C(COc1ccccc1)N/N=C/c1ccc([N+](=O)[O-])o1 | inconclusive: 50.1 µM [inhibitor, partial curve] | –
O=C(Cc1ccccc1)Nc1sc2c(c1C(=O)Nc1ccc(Cl)cc1)CCCC2 | inconclusive: 89.1 µM [inhibitor, single point] | –
COC(=O)c1[nH]c2c(c1C)C(=O)CC(c1ccc(C)cc1)C2 (centres undefined) | – | inactive: -1.19%
COC(=O)c1cccc(NC(=O)CSc2nc3cccnc3n2C)c1 | inconclusive: 89.1 µM [inhibitor, partial curve, poor fit] | –
CC1=CN2C(=N)/C(=C/c3ccc([N+](=O)[O-])o3)C(=O)N=C2S1 | active: 56.2 µM | –
CCc1nnc(NS(=O)(=O)c2ccc(N/C=C\C(=O)c3ccc4ccccc4c3)cc2)s1 | inconclusive: 89.1 µM [inhibitor, partial curve, poor fit] | –
O=C(O)CCCNC(=O)/C=C/c1ccco1 | inconclusive: 79.4 µM [inhibitor, partial curve, poor fit] | –
CCC(=O)N1CCc2cc(Br)cc(S(=O)(=O)CCC(=O)NCCc3ccc(Cl)cc3)c21 | – | inactive: -6.52%
COc1cc(Cl)c(C)cc1NC(=O)CSc1ncc(S(=O)(=O)c2ccc(C(C)(C)C)cc2)c(=O)[nH]1 | inconclusive: 56.2 µM [inhibitor, partial curve, poor fit] | –
O=C(OCC(=O)N1CCN(S(=O)(=O)c2ccccc2)CC1)c1ccc([N+](=O)[O-])o1 | inconclusive: 56.2 µM [inhibitor, partial curve] | –
Cc1nc(SCC(=O)Nc2cc(Cl)ccc2[N+](=O)[O-])nc(C)c1C | inconclusive: 50.1 µM [inhibitor, partial curve, poor fit] | –

SMILES | Potency | activity change, negative = inhibition
Cc1c(-c2cc(Br)ccc2O)nc2cc3c(cc2c1C)OCO3 | inconclusive: 89.1 µM [inhibitor, single point] | –
CCCCN(C)CCNC(=O)c1cc2c(-c3cccc(OC)c3)nn(C)c2s1 | inconclusive: 44.7 µM [inhibitor, partial curve] | –
COc1ccccc1N1CCN(C(=O)Cn2c(=O)nc(-c3ccccc3)c3cc(Cl)ccc32)CC1 | – | inactive: -1.31%
CCOc1ccc(/C=N/NC(=O)c2cc3c(OC)cccc3[nH]2)cc1 | inconclusive: 89.1 µM [inhibitor, single point] | –
CN(C)c1nc(OCc2ccccc2)c2ncc(=O)[nH]c2n1 | – | inactive: -0.721%
CC(=O)c1sc(NC(=O)c2cccnc2Cl)nc1C | inconclusive: 89.1 µM [inhibitor, single point] | –
O=C1c2cccc3c([N+](=O)[O-])c(O)cc(c23)C(=O)N1Nc1ccccc1 | inconclusive: 89.1 µM [inhibitor, partial curve, poor fit] | –
CCCCN1C(=O)C2(NNc3ccccc3O2)c2ccccc21 (centres undefined) | inconclusive: 89.1 µM [inhibitor, single point] | –
CCOc1ccccc1N1CCN(C(=O)c2ccc(-c3ccc(OC(C)=O)cc3)cc2)CC1 | inconclusive: 79.4 µM [inhibitor, partial curve, poor fit] | –
O=[N+]([O-])c1cccc(-c2nnc3cccc(Cl)n23)c1 | – | inactive: -2.47%
COc1ccccc1/C=N/NC(=O)c1cc2c(OC)c(OC)ccc2[nH]1 | inconclusive: 14.1 µM [inhibitor, full curve, poor fit] | –
CC(=O)[C@@]1(O)[C@H](C)CC2C3CC=C4CC(OP(=O)(O)O)CC[C@]4(C)C3CC[C@@]21C (some centres undefined) | inconclusive: 89.1 µM [inhibitor, single point] | –
Clc1ccc2c(N/N=C/c3cccnc3)ccnc2c1 | inconclusive: 22.4 µM [inhibitor, partial curve, poor fit] | –
O=C(CNCc1ccccc1Cl)Nc1ccccc1N1CCCCC1 | inconclusive: 79.4 µM [inhibitor, partial curve, poor fit] | –
CC(C)c1ccc(NC(=S)NN2CCN(C)CC2)cc1 | inconclusive: 89.1 µM [inhibitor, single point] | –
O=C(Nc1ccccc1N1CCOCC1)c1cc2ccccc2o1 | inconclusive: 89.1 µM [inhibitor, partial curve, poor fit] | –
Nc1c(C(=O)NCCN2CCOCC2)c2nc3ccccc3nc2n1CCc1ccccc1 | inconclusive: 70.8 µM [inhibitor, partial curve, poor fit] | –
O=c1c2ccccc2sn1-c1ccccc1 | inconclusive: 89.1 µM [inhibitor, partial curve, poor fit] | –
O=C1CCC(C(=O)Nc2cccc(S(=O)(=O)Nc3ccccc3F)c2)=NN1 | inconclusive: 89.1 µM [inhibitor, single point] | –
Cc1cccc(C)c1-n1cccc1/C=C1\SC(=S)N(c2cccc(C(=O)O)c2)C1=O | inconclusive: 89.1 µM [inhibitor, single point] | –

SMILES | Potency | activity change, negative = inhibition
CN1CCN(C2=Nc3c(Cl)cc(Cl)c4cccc2c34)CC1 | inconclusive: 35.5 µM [inhibitor, partial curve, poor fit] | –
CCOC(=O)C1(S(=O)(=O)c2ccccc2)CCN(Cc2ccc(Cl)cc2)CC1 | inconclusive: 89.1 µM [inhibitor, partial curve, poor fit] | –
Cc1c(NC(=O)/C=C/c2cn(-c3ccccc3)nc2-c2ccc(F)cc2)c(=O)n(-c2ccccc2)n1C | inconclusive: 89.1 µM [inhibitor, single point] | –
COc1ccc(OC)c(C2=NS(=O)(=O)N(C)C(C(=O)Nc3cccc(C(C)=O)c3)=C2)c1 | – | inactive: -23.8%
NCCc1nc2cccnc2n1-c1ccccc1 | – | inactive: 0.991%
Cc1cc(C)nc(/N=C(\N)Nc2ccc(C(C)C)cc2)n1 | inconclusive: 79.4 µM [inhibitor, single point] | –
Nc1ccc2nc(-c3ccc(-c4nc5ccc(N)cc5[nH]4)cc3)[nH]c2c1 | inconclusive: 8.91 µM [inhibitor, full curve, poor fit] | –
Cc1[nH][nH]c(=O)c1C(c1c(C)[nH][nH]c1=O)c1cn(C)c2ccccc12 | inconclusive: 56.2 µM [inhibitor, partial curve, poor fit] | –
Cc1ccc(-c2nnn(CC(=O)N(Cc3cccs3)C(C(=O)NC(C)(C)C)c3ccco3)n2)o1 (centres undefined) | – | inactive: -13.2%
Cc1nn(C)c(C)c1CCC(=O)N1CCCC(C(=O)c2cccc(OC(C)C)c2)C1 (centres undefined) | – | inactive: 3.18%
COc1ccc(C(=O)Oc2ccc(/C=N/Nc3ccc(Cl)c(C(=O)O)c3)cc2OC)cc1 | inconclusive: 79.4 µM [inhibitor, partial curve, poor fit] | –
COc1cc(OC)c(-c2nn3c(-c4ccco4)nnc3s2)cc1OC | inconclusive: 31.6 µM [inhibitor, partial curve, poor fit] | –
O=C(OCC12CC3CC(CC(C3)C1)C2)c1ccc(NCc2cc(O)ccc2O)cc1 | inconclusive: 89.1 µM [inhibitor, single point] | –
Oc1ccc(Br)cc1CNc1cccc2cccnc12 | inconclusive: 100 µM [inhibitor, single point] | –
c1ccc(Cn2c(SCc3nc4ccccc4s3)nnc2-c2ccco2)cc1 | inconclusive: 79.4 µM [inhibitor, partial curve, poor fit] | –
CN(C)CCCNC(=O)/C(=C\c1ccc(-c2cccc([N+](=O)[O-])c2)o1)NC(=O)c1ccccc1 | inconclusive: 44.7 µM [inhibitor, partial curve, poor fit] | –
Cc1ccc(C(=O)CN2/C(=C(\O)c3ccccc3)C(=O)c3ccccc3S2(=O)=O)c(C)c1 | inconclusive: 56.2 µM [inhibitor, partial curve, poor fit] | –
Cc1ccc(/C=C\c2nccc3c2[nH]c2ccccc23)cc1 | inconclusive: 14.1 µM [inhibitor, partial curve, poor fit] and inconclusive: 44.7 µM [inhibitor, partial curve, poor fit] | –
Cn1c2ccccc2c(=O)c2ccc(F)cc21 | inconclusive: 8.91 µM [inhibitor, full curve] and inconclusive: 39.8 µM [inhibitor, partial curve] | –
